The source of these data is ChEMBL document CHEMBL4888484, “Replenishing the malaria drug discovery pipeline: Screening and hit evaluation of the MMV Hit Generation Library 1 (HGL1) against asexual blood stage Plasmodium falciparum ,using a nano luciferase reporter read-out” (2022).

As a reminder, the % Inhibition is the drop in the measured response relative to a control, in per cent.

Out of some 150,000 compounds screened, about 540 (0.36%) showed an effect of 50% or more. The list shows a part of the results.

In this experiment the test system is Plasmodium falciparum. The experiment in a line: Primary screen in NF54 nanoGlo assay, in single point, at 2uM, 72h; a lower Z score goes with more inhibition. The format is functional, Erythrocyte. Conditions: timepoint 72 hour.
For `O=C(N[C@H]1CCN(Cc2ccsc2)C[C@@H]1O)c1cccnc1`, the “% Inhibition” value is -6% and the Z score turned out to be 1.06.
For `CN(c1ccc(C(=O)O)cn1)[C@H](CO)Cc1ccccc1`, the “% Inhibition” value was 1% and the Z score was -0.19.
As to `CCCc1cc(=O)[nH]c(N/C(=N/C(=O)[C@H](CC)c2ccccc2)Nc2ccc(F)cc2)n1`, the “% Inhibition” value stood at 5% and the Z score is -0.65.
For `Cc1ncc(C(=O)NS(=O)(=O)c2c(C)nn(C)c2C)s1`, in that order: -3% and 0.33.
With `Cc1cc(C)cc(C2(C(=O)Nc3cccc(-n4c(C)c[nH]c4=O)c3)CCC2)c1`, the “% Inhibition” value is -6% and the Z score worked out at 0.81.
With `O=C(CC1(N2Cc3ccccc3C2=O)CCOCC1)NC1CCCCCCC1`, the “% Inhibition” value is reported as -9% and the Z score was 1.31.
For `Cc1cc(=O)c(C(=O)N2C[C@@H]3CC[C@H]2CN(C(=O)c2ccncc2)C3)c[nH]1`, in that order: -6% and 0.71.
For `N[C@@H](C(=O)O)c1ccc(F)c(Cl)c1`, in that order: -7% and 1.11.
The matching figures for `Cc1n[nH]c2c1CN(C(=O)c1ccc3c(c1)OCC(=O)N3)CC2`: 0% and 0.06.
Take `O=C(C[C@@H]1NC(=O)N(C2CCCCC2)C1=O)NCCc1c[nH]c2ccccc12`: the “% Inhibition” value amounted to 8% and the Z score is reported as -0.81.
`Cc1ccnc(N2CC[C@H](c3ccccc3C(=O)O)C2)n1`: the “% Inhibition” value was -7% and the Z score stood at 0.82.
For the compound `COCc1ccc(C(=O)N2CCO[C@@H](Cc3ccccc3Cl)C2)o1`, the “% Inhibition” value is -9% and the Z score is 1.65.
Turning to `O=C(NCc1ccccc1)c1cn(C[C@@H]2CC(F)(F)CN2C(=O)CCn2cccn2)nn1`, the “% Inhibition” value was 32% and the Z score is reported as -3.61.
With `CN(Cc1csc(-c2ccccc2)n1)C(=O)C[C@H]1C(=O)N(C)C(=O)N1C`, the “% Inhibition” value is listed as -3% and the Z score is reported as 0.47.
The matching figures for `Cc1ccnc(NCCc2nc(-c3cccnc3)n[nH]2)n1`: 4% and -0.64.
On to `N#Cc1ccsc1NC(=O)c1nc(C2CC2)n(-c2ccccc2)n1`, for which the “% Inhibition” value came out at 2% and the Z score was -0.34.
As for `O=C(c1c(F)cccc1Cl)N(CC(F)(F)F)C1CCOCC1`, the “% Inhibition” value is recorded as -10% and the Z score is listed as 1.12.
Consider `CCOCCC(=O)NCCc1ncnn1C`, for which the “% Inhibition” value is on record as -3% and the Z score worked out at 0.36.
The matching figures for `CN1CCN(C(=O)c2coc(Br)c2)c2ccccc2C1`: -13% and 2.05.
The matching figures for `O=C(Nc1cccnc1-n1cccn1)c1ccc2ncsc2c1`: 7% and -0.92.
`Cn1cc(Cl)cc1C(=O)NC[C@H]1CC[C@H](CO)CC1`: the “% Inhibition” value stood at 2% and the Z score is recorded as -0.3.
The matching figures for `COc1ccc(Br)c(CN(C)C(=O)Cc2ccncc2)c1`: 1% and -0.11.
The matching figures for `Cc1cc(Br)c2c3c(nc(-c4ccccc4)nc13)-c1ccccc1C2=O`: -1% and 0.26.
As to `O=C(Cn1nc(C2CC2)n(-c2ccccc2)c1=O)N1CCC(Cc2ccccc2)CC1`, the “% Inhibition” value is 6% and the Z score is listed as -0.65.
Regarding `O=C1NC(=O)C2(CCN(C(=O)c3cc(Cc4ccccc4)ccc3O)CC2)N1`, the “% Inhibition” value was -3% and the Z score stood at 0.41.
For `COc1ccc(CCC(=O)N(Cc2ccco2)C2CCOCC2)cc1`, in that order: -7% and 1.09.
Consider `O=C(c1cc(-c2ccc(Cl)s2)nc2ccccc12)N1CCN(Cc2ccc3c(c2)OCO3)CC1`, for which the “% Inhibition” value was -8% and the Z score is 0.7.
In the case of `O=c1[nH]c2ccccc2n1C1=NCCN1`, the “% Inhibition” value is recorded as -36% and the Z score is on record as 4.25.
The matching figures for `COc1ccc(C)cc1NC(=O)CN1CCC[C@@H]1CN1CCCC1`: 32% and -3.3.
For `C[C@H](c1cnccn1)c1noc(C2(c3cccc(OC(F)(F)F)c3)CCC2)n1`, the “% Inhibition” value is 3% and the Z score is -0.29.
The matching figures for `Cc1cnc(CN[C@@H](C)c2cccc(NC(=O)c3ccccc3)c2)o1`: 0% and 0.
Consider `CCOC(=O)c1cc(-c2ccc(F)cc2)n(C2CCN(C(=O)c3cccc(C)c3)CC2)n1`, for which the “% Inhibition” value is -12% and the Z score is listed as 1.65.
For `CN(C)C[C@@H](O)CNc1ccc2cc(Cl)ccc2n1`, the “% Inhibition” value is recorded as -7% and the Z score was 0.88.
The matching figures for `c1ccc2c(N3CCC[C@H](c4nccn4CC4CC4)C3)ccnc2c1`: -3% and 0.41.
For `Cc1nnc(NC[C@@H](O)CCc2ccccc2)c(C#N)c1C`, in that order: -8% and 1.26.
The matching figures for `N#Cc1cnn(C(=O)COc2ccc(-c3ccccc3)cc2Cl)c1N`: -2% and 0.22.
For the compound `CCN(Cc1ccc2[nH]ccc2c1)S(=O)(=O)CC1CCOCC1`, the “% Inhibition” value is listed as -14% and the Z score worked out at 1.52.
Turning to `Fc1ccc([C@@H](NCc2nnc3ccccn23)c2ccccc2)nc1`, the “% Inhibition” value is on record as -19% and the Z score amounted to 2.06.
In the case of `CCCc1noc(-c2ccc3nnc(CC(=O)Nc4ccc(Cl)cc4)n3c2)n1`, the “% Inhibition” value is -11% and the Z score stood at 1.72.
For `Cc1ccc(-c2nc(Cc3ccc4c(c3)OCO4)n(C(C)(C)C)n2)nn1`, in that order: -3% and 0.45.
The matching figures for `O=C(c1cc(C(F)(F)F)ccc1Cl)N1CC[C@H](N2CCC(O)CC2)[C@@H](O)C1`: 6% and -0.76.
As for `Cc1csc(CN2CCC(NC(=O)N3CCOCC3)CC2)n1`, the “% Inhibition” value was 11% and the Z score is -1.33.
Take `O=C(Nc1ccns1)N[C@@H]1c2ccccc2CC[C@@H]1O`: the “% Inhibition” value was -6% and the Z score is 1.24.
For `Cc1ccc(CN2CCC(F)(C(=O)N3CCOCC3)CC2)o1`, in that order: -9% and 1.21.
For `COc1ccc(NC(=O)Cn2c(N3CCCCC3)nc(C)cc2=O)cc1OC`, the “% Inhibition” value is -4% and the Z score turned out to be 0.41.
Take `Cc1cccc(S(=O)(=O)N[C@H]2C[C@H](c3cc(N4CCCC4)ncn3)C2)c1`: the “% Inhibition” value is -9% and the Z score is reported as 1.46.
For `CCC(=O)N1C[C@H](NC(=O)OC(C)(C)C)[C@@H](c2cccc(F)c2)C1`, the “% Inhibition” value was found to be 14% and the Z score is -1.64.
The matching figures for `COC(=O)c1ccc(C[N+]2(Cc3ccc(C(=O)OC)cc3)CCCC2)cc1`: 3% and -0.51.
The matching figures for `CO[C@H]1C[C@H]2CN(Cc3cc(C)nn3C)[C@@H](Cc3ccccc3)C(=O)N2C1`: -7% and 0.96.
As to `CCc1nc(NC(=O)N2CCC(F)(F)[C@@H](CO)C2)sc1C`, the “% Inhibition” value is -10% and the Z score came out at 1.81.
For `O=C(c1cc(-c2ccccc2)n[nH]1)N1CCCCCC1`, in that order: -3% and 0.5.
For `Cc1noc(C(F)(F)F)c1C(=O)NC[C@@H](c1cccs1)N1CCC(C)CC1`, in that order: 2% and -0.27.
For `Cc1nnc(CN2CCC(CC(=O)N3CCCC3)CC2)s1`, in that order: -3% and 0.48.
For the compound `Fc1ccccc1-c1noc(-c2cncnc2N2CCc3ccccc32)n1`, the “% Inhibition” value was 0% and the Z score is -0.07.
As for `c1cncc(-c2n[nH]cc2CNC[C@H]2COc3ccccc3O2)c1`, the “% Inhibition” value amounted to 6% and the Z score is -1.18.
For the compound `Cc1noc([C@@H](NCC2CCCC2)C(C)C)n1`, the “% Inhibition” value is reported as -1% and the Z score is 0.12.
For `COc1ccsc1C(=O)N(C)C1CCN(Cc2ccncc2)CC1`, in that order: -13% and 1.14.
For `O=S(=O)(c1ccc2c(c1)OCCO2)N1CCC[C@H](c2nc3ccccc3s2)C1`, in that order: -4% and 0.62.
In the case of `Clc1ccc([C@@H]2c3cccn3CCCN2Cc2cccc(Oc3ccccc3)c2)cc1Cl`, the “% Inhibition” value is -1% and the Z score is reported as 0.11.
For `CN(C)[C@H]1CCN(Cc2nc(-c3ccncc3)nn2CC(F)(F)F)C1`, in that order: -11% and 1.52.
For `COc1ccc(-c2cc(-c3ccccn3)nc(N)c2C#N)cc1C`, in that order: 10% and -1.84.
For `CCCn1c(C(=O)NCCOC)cc2cc(NC(=O)c3ccccc3Cl)ccc21`, in that order: 10% and -1.24.
Consider `CCOC(=O)Nc1ccc(Cl)cn1`, for which the “% Inhibition” value is listed as 2% and the Z score is on record as -0.33.
Take `CN(c1cccnn1)S(=O)(=O)c1ccc(Br)c(F)c1`: the “% Inhibition” value amounted to 5% and the Z score is listed as -0.74.
`O=C(c1n[nH]c2ccccc12)N1C[C@@H]2CC[C@H]1CN(Cc1ccncc1)C2`: the “% Inhibition” value is reported as -23% and the Z score is 1.99.
For `c1ccc2oc(-c3nnc4n3CCCC[C@H]4C3CCOCC3)cc2c1`, the “% Inhibition” value was -10% and the Z score is 1.63.
In the case of `COc1ncccc1-c1nc(C)nc(O)c1Cl`, the “% Inhibition” value is -8% and the Z score came out at 1.5.
The matching figures for `CC1CCCC(OCc2nnc(-c3nnc(-c4ccccc4)o3)o2)C1` (stereo not drawn): -16% and 1.57.
The matching figures for `Cc1c(Cl)ccc2c(C(=O)Nc3cccc4ccccc34)cc(-c3cccs3)nc12`: 2% and -0.24.
With `Cc1c(C(=O)NCCCN2CCOCC2)nnn1-c1ccc2ncccc2c1`, the “% Inhibition” value was determined as 9% and the Z score is reported as -0.89.
Consider `NC1(c2ccc(Cl)cc2)Cc2ccccc2C1`, for which the “% Inhibition” value is recorded as -13% and the Z score stood at 1.7.
For `CCCCS(=O)(=O)N(C)C(=O)Cc1c(C)nn(C)c1C`, in that order: -11% and 1.13.
The matching figures for `COc1ccc(Nc2nc(C)c(NC(=O)c3cccs3)c(Nc3ccc(OC)cc3)n2)cc1`: -8% and 1.66.
The matching figures for `Cc1cc(C)nc(NC[C@H]2CCCO2)n1`: -5% and 0.64.
On to `COc1cnc(NC(=O)N2Cc3ccccc3NC(=O)[C@@H]2C)s1`, for which the “% Inhibition” value is given as -5% and the Z score is 0.72.
Turning to `Cc1ccccc1C(=O)Nc1sc2c(c1C(=O)N1CCN(Cc3ccccc3)CC1)CC[C@H](C)C2`, the “% Inhibition” value is recorded as 0% and the Z score is reported as -0.03.
Consider `C=Cc1cccc(-c2nccn2CCCN2CCC(C(N)=O)CC2)c1`, for which the “% Inhibition” value is -7% and the Z score turned out to be 0.82.
Take `c1ccc(-c2cn[nH]c2C2CCN(c3ncnc4[nH]cnc34)CC2)cc1`: the “% Inhibition” value is reported as -15% and the Z score is reported as 1.53.
For `CN(CC(N)=O)C[C@H]1CN(c2ncnc3nc(N)ccc23)CCO1`, in that order: -23% and 2.82.
For `O=C(NCc1ccsc1)Nc1cccs1`, in that order: -5% and 0.72.
With `O=C(Nc1cccnc1C1CC1)c1csnn1`, the “% Inhibition” value is given as -5% and the Z score turned out to be 0.84.
On to `O=C(N[C@@H](Cc1cccc(F)c1)c1cccc(F)c1)c1ccc(=O)[nH]n1`, for which the “% Inhibition” value is listed as 7% and the Z score is listed as -0.94.
For `NC(=O)C1CCN(C(=O)Nc2ccc3c(c2)OCCO3)CC1`, in that order: -10% and 1.57.
For `Cc1ccccc1OCC(=O)NCC1(N2CCOCC2)CCCCC1`, in that order: 0% and -0.03.
